In the supplement of paper PMC4604168 (melanoma cell lines):
The other results are listed elsewhere or left out. Repeats are few or missing, and single values can be far off.

Key:
Assay in all cases: cell count relative to DMSO control; melanoma cells; higher = more viable cells
Settings in all cases: library dose: standard library concentration; 72 h
G361 = tested on: G361
IPC-298 = tested on: IPC-298
IST-MEL1 = tested on: IST-MEL1
LB2518-MEL = tested on: LB2518-MEL
LOXIMVI = tested on: LOXIMVI
MEL-HO = tested on: MEL-HO
MZ2-MEL = tested on: MZ2-MEL
MeWo = tested on: MeWo
RPMI7951 = tested on: RPMI7951
RVH-421 = tested on: RVH-421
SkMel28 = tested on: SkMel28
SkMel2 = tested on: SkMel2
SkMel30 = tested on: SkMel30
SkMel5 = tested on: SkMel5
UACC257 = tested on: UACC257
UACC62 = tested on: UACC62
WM115 = tested on: WM115
WM1716 = tested on: WM1716
WM1745 = tested on: WM1745
WM3526 = tested on: WM3526
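Also: cells treated in 1,536-well plates, then fixed and DAPI-stained, with nuclei counted from automated high-throughput microscope images.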

Structure (SMILES)	cell count (G361)	cell count (IPC-298)	cell count (IST-MEL1)	cell count (LB2518-MEL)	cell count (LOXIMVI)	cell count (MEL-HO)	cell count (MZ2-MEL)	cell count (MeWo)	cell count (RPMI7951)	cell count (RVH-421)	cell count (SkMel28)	cell count (SkMel2)	cell count (SkMel30)	cell count (SkMel5)	cell count (UACC257)	cell count (UACC62)	cell count (WM115)	cell count (WM1716)	cell count (WM1745)	cell count (WM3526)
O=C(O)c1ccc2c(c1)nc(Nc1cccc(Cl)c1)c1ccncc12 + OCCn1cc(-c2cnc3nnn(Cc4ccc5ncccc5c4)c3n2)cn1 [PF04217903] (first compound 2 µM, partner dose 5 µM)	66.1%	73.3%	67.2%	98.6%	40.8%	56.8%	69%	84.1%	64.7%	88.7%	81.1%	73.9%	77.5%	84.8%	101%	61.5%	109%	78.3%	79.9%	58.4%
O=C(Nc1cc(C(F)(F)F)cc(C(F)(F)F)c1)c1cc(Cl)ccc1O + CC1(C)CCC(c2ccc(Cl)cc2)=C(CN2CCN(c3ccc(C(=O)NS(=O)(=O)c4ccc(N[C@H](CCN5CCOCC5)CSc5ccccc5)c(S(=O)(=O)C(F)(F)F)c4)cc3)CC2)C1 [ABT263] (first compound 0.08 µM, partner dose 2 µM)	66.5%	90.4%	61%	88.8%	61.8%	55.8%	79.3%	86.9%	26.2%	191%	65.5%	83.3%	68.2%	98.8%	37.3%	75.1%	98.3%	63.7%	3.53%	78%
O=C(Nc1cc(C(F)(F)F)cc(C(F)(F)F)c1)c1cc(Cl)ccc1O + O=C(Nc1cccc(Cl)c1)Nc1ncc(CCNc2ncnc3ccsc23)s1 [SNS314] (first compound 0.08 µM, partner dose 0.004 µM)	83.2%	101%	74.5%	77.1%	79.7%	82.6%	98.8%	68.8%	78.4%	66.7%	65%	92.6%	104%	74.5%	74.3%	70.1%	53%	69%	86.9%	78.3%
O=C(O)c1ccc2c(c1)nc(Nc1cccc(Cl)c1)c1ccncc12 + COc1ccc2c(c1)CCC1C2CCC2(C)C(NCCCCCCN3C(=O)C=CC3=O)CCC12 [U73122] (first compound 2 µM, partner dose 2 µM)	44.3%	78.2%	75.3%	75%	39.9%	57.6%	69.7%	68.4%	36%	52.6%	42.6%	84.5%	73.8%	83.4%	84.4%	48.8%	78.4%	69.7%	–	61%
O=C(Nc1cc(C(F)(F)F)cc(C(F)(F)F)c1)c1cc(Cl)ccc1O + OCCn1cc(-c2cnc3nnn(Cc4ccc5ncccc5c4)c3n2)cn1 [PF04217903] (first compound 0.08 µM, partner dose 5 µM)	100%	104%	88%	98.4%	124%	94.3%	112%	92.1%	114%	97.1%	106%	97.2%	128%	73.5%	87%	82.2%	90.1%	92.7%	116%	91.5%
O=C(O)[C@@H]1[O][Sb](=[O])([O][Sb]2(=[O])[O][C@H]([C@H](O)CO)[C@H](O)[C@H](C(=O)O)[O]2)[O][C@H]([C@H](O)CO)[C@@H]1O (some centres undefined) [stibogluconate] + CC1(C)NC(=O)N(c2ccc([N+](=O)[O-])c(C(F)(F)F)c2)C1=O [nilutamide] (first compound 10 µM, partner dose 5 µM)	102%	118%	91.6%	108%	85.1%	94.8%	118%	100%	120%	92%	103%	99.7%	120%	122%	95%	96%	123%	108%	120%	87.3%
O=C(Nc1cc(C(F)(F)F)cc(C(F)(F)F)c1)c1cc(Cl)ccc1O + CS(=O)(=O)c1ccc(C(=O)Nc2ccc(Cl)c(-c3ccccn3)c2)c(Cl)c1 [vismodegib] (first compound 0.08 µM, partner dose 5 µM)	91.8%	81.3%	93.7%	109%	134%	85.5%	87.8%	87.8%	119%	130%	98%	106%	89.8%	101%	116%	72.1%	113%	120%	124%	94.9%
O=C(O)[C@@H]1[O][Sb](=[O])([O][Sb]2(=[O])[O][C@H]([C@H](O)CO)[C@H](O)[C@H](C(=O)O)[O]2)[O][C@H]([C@H](O)CO)[C@@H]1O (some centres undefined) [stibogluconate] + Cn1c(Nc2ccc(C(F)(F)F)cc2)nc2cc(Oc3ccnc(-c4ncc(C(F)(F)F)[nH]4)c3)ccc21 [CHIR265] (first compound 10 µM, partner dose 0.4 µM)	24.9%	50.6%	94%	35%	91.6%	78.1%	79.4%	75.2%	64%	54%	23.9%	65.3%	68.4%	38.5%	86.7%	43.3%	20.5%	68.7%	62.3%	43.7%
